Measured values published in PubChem BioAssay AID1347417 (National Center for Advancing Translational Sciences (NCATS), 2020).
Among all 120,000 compounds or so, about 5,300 (4.4%) were called active. The shares of active, inactive and inconclusive entries below differ from those in the screen. Calls follow the shape of the dose curve; as a rule, active = well fitted inhibition curve with a large enough effect; inconclusive = small, poorly fitted or top-dose-only effect; inactive = no such curve, though single readings can be large or run the other way. Where the call is inconclusive, the potency comes from a doubtful curve fit.

test: qHTS Primary assay for Inhibitors of Plasmodium falciparum Dd2 growth in vitro; also: nearly all actives have a fitted effect of over 65% in size;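 as to activity, negative = inhibition: plate controls were DMSO vehicle for no effect and reference drug for full effect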; conditions: P. falciparum Dd2 growth, SYBR Green, 72 h; activity, negative = inhibition: at 28.9 µM (top of the series) unless noted; series mostly up to 28.9 µM
Summary of the method: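 Infected erythrocytes (Dd2, 0.3% parasitemia, 2.5% hematocrit final) are added to compound in RPMI-1640/Albumax II medium, grown 72 h at 37C in low oxygen, then lysed with saponin/Triton-X containing SYBR Green and read by fluorescence.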
Potency is read from the fitted curve at half-maximal effect; tags tell the direction and shape of the fitted curve.

| Structure (SMILES) | Potency | activity, negative = inhibition | outcome |
| --- | --- | --- | --- |
| c1cn(-c2ccc(N3CCCCCC3)nc2)c(-c2cc3n(n2)CCCNC3)n1 | inconclusive: 10 µM [inhibitor, single point] | – | – |
| COc1ccccc1N1CCN(c2ncccc2CNC(C)Cn2ccnc2)CC1 (centres undefined) | inconclusive: 12.6 µM [inhibitor, single point] | – | – |
| COc1ccc(Cn2c(C3CCN(C(=O)c4ccc(C)c(C)c4)CC3)n[nH]c2=O)cc1 | inconclusive: 17.8 µM [inhibitor, single point] | – | – |
| Cc1nn(C)c(C)c1C(=O)N1CCCN(Cc2ccc(F)cc2)C(C(C)C)C1 (centres undefined) | – | inactive: -4.93% | – |
| O=C(Nc1ccc(F)c(Cl)c1)N1CCC(CN2CCc3ccccc3C2)CC1 | inconclusive: 11.2 µM [inhibitor, single point] | – | – |
| Cc1noc2c(NCc3ccncc3)cc(-c3ccc(Cl)cc3)nc12 | inconclusive: 31.6 µM [inhibitor, single point] | – | – |
| O=C(CCC1CCN(Cc2cccc3c2OCO3)CC1)NCc1cccc(C(F)(F)F)c1 | inconclusive: 2 µM [inhibitor, full curve] | – | – |
| O=C1NCCCCCN(C(=O)C2CCC2)[C@@H]2C[C@@H](C(=O)N3CCc4ccccc4C3)C[C@H]12 | inconclusive: 15.8 µM [inhibitor, single point] | – | – |
| COc1cccc(CNC(=O)CN2CC3CC(C2)[C@H]2CCCC(=O)N2C3)c1OC (some centres undefined) | – | inactive: -19.9% | – |
| CCOC(=O)c1cnc2ccc(Cl)cc2c1Nc1ccc(N2CCOCC2)cc1 | active: 8.91 µM | – | – |
| CC(C)CN1C(=O)c2cccn2CC1CNC(=O)c1cccc(F)c1 (centres undefined) | – | inactive: -24.2% | – |
| COc1ccc(Nc2nc(-c3cccc(OC)c3)no2)cc1 | – | inactive: -20.4% | – |
| COc1ccc(C2=NOC3(CCN(C(=O)c4ccc(C(F)(F)F)cc4)C3)C2)cc1 (centres undefined) | – | – | inactive |
| CCCN(CCC)CCNC(=O)C1CCN(c2nc3ccc(CC)cc3s2)CC1 | active: 7.08 µM | – | – |
| COC(=O)c1ccccc1-n1cc2c(c1-c1cccc(C)c1)c(=O)n(C)c(=O)n2C | inconclusive: 15.8 µM [inhibitor, single point] | – | – |
| Cc1cccc(CN2CCN3C(=O)N(Cc4ccc(F)cc4)C[C@H]3C2)n1 | – | – | inactive [at 44.1 µM] |
| CCC(C)NC(=O)CCc1c(C)nc2cc(-c3ccc(OC)cc3OC)nn2c1C (centres undefined) | inconclusive: 10 µM [inhibitor, single point] | – | – |
| Cc1ccccc1C(=O)N1C(C(=O)NCC(C)C)COC12CCN(C(=O)c1cccc(Cl)c1)CC2 (centres undefined) | inconclusive: 3.98 µM [inhibitor, single point] | – | – |
| CCCN(C(=O)Cn1cc(S(=O)(=O)N2CCN(c3ccccc3F)CC2)c2ccccc2c1=O)c1cccc(C)c1 | inconclusive: 10 µM [inhibitor, single point] | – | – |
